The source gives no read counts; variants with many changes may rest on few reads.
B1: LINE1-full (parent)
chain: UACGUAGGUGGUUUUCCCCUGAUAGUGCUAAGGGGGCCUGGAAGUUUGGACUGGGCAGAGCUCAACACAGCGUGGCAAAGUGGCUGUGGCUAGACUGCCUCUCUGGAUUCCUCGUCACUCAGCAGGGCAUCUCUGAGAGAAAUGCC

Variants of: B1
Experiment: self-cleavage, relative activity (ratio to wild type); higher = more cleavage; in vitro, sequencing; the parent is a self-cleaving ribozyme

Variant | self-cleavage
A43G C63U U87A | 0.06
A42G A67U U87A | 0.44
A42G U46C U96C | 0.79
A42G A69U C95G C116U U143A | 0.03
A42G A69G U109C U112C | 0
A42U U62A A129G | 0.02
A42G C116U U134A A141G | 1.17
A42G U45C U46C U143C | 2.63
A42G A121C G125A | 2.37
A42G U62C A67G | 0
A42G U119C A136U | 1.16
A42G G53C A142G | 0.89
A43G A69U C95U | 0
A42U A65G A138G | 0.04
A43G A78U C84U U102A | 0.17
A43G C61U U132C U143C | 0.09
A43G A69U G144A | 0.12
A42G G105A U109C | 2.35
A42U U46A C90U A129G A141G | 0.03
A42G A77U U96C A140G A141U | 0.09
A42G U87A U115C | 0.22
A42G U81C U143C | 1.15
A42G G72A A136G | 2.11
A42G A67U G144A | 0.27

Variant | self-cleavage
A42U A57G A65G U102C A129U A140G | 0
A42G A124U A129G | 1.34
A42G U85C A142G | 0.41
A42U U62C A65G G114U | 0.02
A42G U52A A65G A136G | 0.11
A42G U45G A78U A94U U96A C146U | 0.06
A42U A65G U132C | 0.04
A42G C63U A64U C71U U85C | 0.07
A42G U91A A107U A117G | 0.46
A42G G89A A140U | 0.08
A42U A78U A142G C146A | 1.51
A42G A69G U87A C120U U134C | 0.13
A42G U62C U132C A138G | 0.07
A42G U119A A142G | 1.15
A43G G60C G75A C110A | 0.01
A42U A43G U87A U115A G122U A138G | 0.08
A42G A64G U112C U143A | 0
A42G A65U A79U A92G G97A A141G A142G | 0
A43G C113U U143A | 0.84
A42U A138G C146A | 0.72
A42G A64G U102C | 0.77
A43G A64U A79C | 0.46
A42G U62C U100C U108C | 0.66
A42G A94U A129U | 0.28

Variant | self-cleavage
A42G U52A U100C A136G | 2.58
A42U U87A U108C | 0.01
A43G A77G U108C | 0
A43G C66U A69G U73A U115C U130C | 0.05
A42G U102C G127U | 1.2
A43G A64G U134C | 0.73
A43G A64U G80A U81G G82U | 0.82
A42G A77U U96C U104C A140G | 0
A43G A59G A69G | 0
A43G A79G A117G U143C | 0.92
A42G C56U U81C U119C | 0.18
A42G U45C U143C | 1.73
A42G A69U A140G A142G | 0.03
A42U U62C A117G | 0
A43G C111U A141G | 1.23
A43G A64G U85C | 0
A42G U81A U85C | 0.48
A42G U132A C145A | 1.67
A43G A77G U87C | 0
A43G A77G A129U | 1.1
A43G A77G A129C | 1.53
A42U U62C A78G U85A U104A | 0.01
A42G C98U A129G | 0
A42U A57G A78U U85C | 0.1

Variant | self-cleavage
A42U U85C G114A | 0.1
A43G C76U U109C U134C | 1.99
A43G A57G U91C | 0
A42G U46A U112A A117U A121G A142G | 1.12
A42G U47A A65G A140U | 0.51
A42G G97A U130C | 0.12
A42G A94G A107G | 0.37
A42G U45A A69C C110U | 0.06
A42G U45C A121G | 1.08
A42U U62G A79G A129U | 0.05
A42U U62G A65G U119C | 0
A43G A64G U102C C131U | 0.38
A43G A94G U108A | 0.39
A42G G75C A136G | 0.43
A42G A65G A79G | 0.21
A42G A64U A124G | 0
A43G G53A A140U | 0.82
A42G U85A U104C | 0.48
A42G A64G G74A U81C U104C A129U | 0.15
A42G U46A U134A C146U | 1.05
A43G A79G G89A A94G U112C | 0
A42U U73C U132A | 1.18
A42G A92G A94G | 0.31
A43G A59G U130G U132A | 0.3

Variant | self-cleavage
A42G G49A A69U | 0.05
A43G A57G G93A A140G | 0.1
A42U U91C U96C U100C | 0.53
A42G U47C A77U | 1.33
A42U A65G U96C G139A A140G | 0
A42G U100A A117U | 0.69
A42G A64G U87C U119A A129U | 0
A42G A67G U85A | 0.12
A42G U73G A94C | 0
A43G A69C U91A U130C | 0
A42G U62C C99U U109A | 0.06
A42G A79U A94G C123A | 0.35
A43G A57U U85C | 0
A43G A79G U134G | 0.75
A42U A92U C131A | 0.37
A43G A78G U115A | 1.4
A43G A65G A94G A141G | 0
A42G C61U U108C | 0.03
A43G C56A A67G A69U | 0.09
A42G A107G A140G | 2.45
A42G U102C A117G | 0.44
A43G A78G U134A | 1.16
A42G A79G U104A | 0
A43G G55A U119C U143C | 0

Variant | self-cleavage
A43G A57U A67U U85A | 0
A43G A69U G70A | 0.02
A42G U73A U130C | 1.81
A42G A67G U85C A141G | 0.61
A42G U45C A69G | 0.92
A42G U45G A69U U109C A129G A140U | 0
A42G U102C A140G | 1.39
A43G A59G U85C C123U | 0
A43G C66U U91C C99U U109C A142G | 0
A42G C76U U100C | 1.55
A42G C51U U143A | 1.55
A42G A92U A129G | 0.79
A43G C118A U119C | 0.4
A42G U104A U134C | 0.99
A43G G53U A124G | 0.92
A43G A107G U130A A140G | 1.08
A42G U47C C103A | 1.36
A42U G72A A142G | 1.09
A42G A92G U104C | 0
A42G G72A U119C G137A | 1.95
A42G U119G A141G | 0.79
A43G G53A U100C U108C A117C U134C | 2.3
A42U A65G C99U A138U | 0.05
A42G U87G A94G | 0.67

Variant | self-cleavage
A43C U47C A136U | 1.47
A42U A117U A124G U132C | 1.58
A42G A121U A140C A142G | 1.58
A43G A64G A140G | 1.34
A42G U62A A65G U102C A117U | 0
A42G U52A G82U U96C U130C A141G | 0.15
A42U A77G A117G | 0
A42U U73C U81A C98G | 0.14
A43G A77G U143A | 0
A42G A67G C113A | 0.27
A42G U62A A124U A136G | 0.07
A42U A77U U115C | 1.49
A42G C68G A92G | 0.04
A42G A79G U87C | 0.66
A43G A79U A138G A141G | 1.7
A42G U108C U130C U132C | 2.7
A42G C61U U100C | 0.1
A42G U45C A64U U100C U104A A138G | 0.21
A42G G127A A140G | 0.69
A42U A79U U100C A140G | 2.47
A42G A124G A136G | 0.97
A42G U62C A69G G93C | 0
A42G U45A U47A A129G A136G C146U | 0.96
